Reference: article PMC9911399, “Two distinct binding modes provide the RNA-binding protein RbFox with extraordinary sequence specificity”
Where a chain is given by its changes, count along the chain named. The list shows a part of the results.

T1: RBFOX1 RRM RbFoxmut (Fox-RRM*) (Homo sapiens, UniProt Q9NWB1 109-208, R118D;E147R;N151S;E152T)
T1 sequence: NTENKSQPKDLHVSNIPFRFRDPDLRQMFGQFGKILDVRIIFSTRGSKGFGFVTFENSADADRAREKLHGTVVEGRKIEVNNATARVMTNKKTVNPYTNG

B1: GUAGGAC (DNA:RNA)
RNA: GGGAGACCGGAAUUCAGAUUGUCCGUAGGACUUAAAUCCCGUCGUAGCCACCA
DNA 1: CAATCTGAATTCCGGTCTCCC
DNA 2: TGGTGGCTACGACGGGATT
B2: AGGUGUU (DNA:RNA)
RNA: B1 RNA with G25A, U26G, A27G, G28U, A30U, C31U
DNA 1: CAATCTGAATTCCGGTCTCCC
DNA 2: TGGTGGCTACGACGGGATT
B3: AAUCGGU (DNA:RNA)
RNA: B1 RNA with G25A, U26A, A27U, G28C, A30G, C31U
DNA 1: CAATCTGAATTCCGGTCTCCC
DNA 2: TGGTGGCTACGACGGGATT
B4: AACGCCA (DNA:RNA)
RNA: B1 RNA with G25A, U26A, A27C, G29C, A30C, C31A
DNA 1: CAATCTGAATTCCGGTCTCCC
DNA 2: TGGTGGCTACGACGGGATT
B5: GUUCCUA (DNA:RNA)
RNA: B1 RNA with A27U, G28C, G29C, A30U, C31A
DNA 1: CAATCTGAATTCCGGTCTCCC
DNA 2: TGGTGGCTACGACGGGATT
B6: CUAUUCU (DNA:RNA)
RNA: B1 RNA with G25C, G28U, G29U, A30C, C31U
DNA 1: CAATCTGAATTCCGGTCTCCC
DNA 2: TGGTGGCTACGACGGGATT
B7: GAGGAUU (DNA:RNA)
RNA: B1 RNA with U26A, A27G, G29A, A30U, C31U
DNA 1: CAATCTGAATTCCGGTCTCCC
DNA 2: TGGTGGCTACGACGGGATT
B8: AACAUAA (DNA:RNA)
RNA: B1 RNA with G25A, U26A, A27C, G28A, G29U, C31A
DNA 1: CAATCTGAATTCCGGTCTCCC
DNA 2: TGGTGGCTACGACGGGATT
B9: ACGUUGG (DNA:RNA)
RNA: GGGAGACCGGAAUUCAGAUUGUCCACGUUGGUUAAAUCCCGUCGUAGCCACCA
DNA 1: CAATCTGAATTCCGGTCTCCC
DNA 2: TGGTGGCTACGACGGGATT
B10: GCUUAAU (DNA:RNA)
RNA: B9 RNA with A25G, G27U, U29A, G30A, G31U
DNA 1: CAATCTGAATTCCGGTCTCCC
DNA 2: TGGTGGCTACGACGGGATT
B11: UAACUCC (DNA:RNA)
RNA: B1 RNA with G25U, U26A, G28C, G29U, A30C
DNA 1: CAATCTGAATTCCGGTCTCCC
DNA 2: TGGTGGCTACGACGGGATT
B12: CCAAUCC (DNA:RNA)
RNA: B9 RNA with A25C, G27A, U28A, G30C, G31C
DNA 1: CAATCTGAATTCCGGTCTCCC
DNA 2: TGGTGGCTACGACGGGATT
B13: CAAAACC (DNA:RNA)
RNA: B1 RNA with G25C, U26A, G28A, G29A, A30C
DNA 1: CAATCTGAATTCCGGTCTCCC
DNA 2: TGGTGGCTACGACGGGATT
B14: GUAUUCG (DNA:RNA)
RNA: B9 RNA with A25G, C26U, G27A, G30C
DNA 1: CAATCTGAATTCCGGTCTCCC
DNA 2: TGGTGGCTACGACGGGATT
B15: UAUCACG (DNA:RNA)
RNA: B9 RNA with A25U, C26A, G27U, U28C, U29A, G30C
DNA 1: CAATCTGAATTCCGGTCTCCC
DNA 2: TGGTGGCTACGACGGGATT
B16: GUUGUGC (DNA:RNA)
RNA: B1 RNA with A27U, G29U, A30G
DNA 1: CAATCTGAATTCCGGTCTCCC
DNA 2: TGGTGGCTACGACGGGATT
B17: UGUACUG (DNA:RNA)
RNA: B9 RNA with A25U, C26G, G27U, U28A, U29C, G30U
DNA 1: CAATCTGAATTCCGGTCTCCC
DNA 2: TGGTGGCTACGACGGGATT
B18: ACGUUUA (DNA:RNA)
RNA: B9 RNA with G30U, G31A
DNA 1: CAATCTGAATTCCGGTCTCCC
DNA 2: TGGTGGCTACGACGGGATT
B19: UUAUAGC (DNA:RNA)
RNA: B1 RNA with G25U, G28U, G29A, A30G
DNA 1: CAATCTGAATTCCGGTCTCCC
DNA 2: TGGTGGCTACGACGGGATT
B20: GUAAACA (DNA:RNA)
RNA: B1 RNA with G28A, G29A, A30C, C31A
DNA 1: CAATCTGAATTCCGGTCTCCC
DNA 2: TGGTGGCTACGACGGGATT
B21: AGCUAUC (DNA:RNA)
RNA: B9 RNA with C26G, G27C, U29A, G30U, G31C
DNA 1: CAATCTGAATTCCGGTCTCCC
DNA 2: TGGTGGCTACGACGGGATT
B22: GCAAGCA (DNA:RNA)
RNA: B1 RNA with U26C, G28A, A30C, C31A
DNA 1: CAATCTGAATTCCGGTCTCCC
DNA 2: TGGTGGCTACGACGGGATT
B23: GAAGCGA (DNA:RNA)
RNA: B1 RNA with U26A, G29C, A30G, C31A
DNA 1: CAATCTGAATTCCGGTCTCCC
DNA 2: TGGTGGCTACGACGGGATT
B24: UGAGGUU (DNA:RNA)
RNA: B1 RNA with G25U, U26G, A30U, C31U
DNA 1: CAATCTGAATTCCGGTCTCCC
DNA 2: TGGTGGCTACGACGGGATT
B25: CAGUUAG (DNA:RNA)
RNA: B9 RNA with A25C, C26A, G30A
DNA 1: CAATCTGAATTCCGGTCTCCC
DNA 2: TGGTGGCTACGACGGGATT
B26: UGGAGUC (DNA:RNA)
RNA: B1 RNA with G25U, U26G, A27G, G28A, A30U
DNA 1: CAATCTGAATTCCGGTCTCCC
DNA 2: TGGTGGCTACGACGGGATT
B27: CAUAAAU (DNA:RNA)
RNA: B1 RNA with G25C, U26A, A27U, G28A, G29A, C31U
DNA 1: CAATCTGAATTCCGGTCTCCC
DNA 2: TGGTGGCTACGACGGGATT
B28: AGUUGCC (DNA:RNA)
RNA: B9 RNA with C26G, G27U, U29G, G30C, G31C
DNA 1: CAATCTGAATTCCGGTCTCCC
DNA 2: TGGTGGCTACGACGGGATT
B29: UUUCUAU (DNA:RNA)
RNA: B1 RNA with G25U, A27U, G28C, G29U, C31U
DNA 1: CAATCTGAATTCCGGTCTCCC
DNA 2: TGGTGGCTACGACGGGATT
B30: CAGCCGC (DNA:RNA)
RNA: B9 RNA with A25C, C26A, U28C, U29C, G31C
DNA 1: CAATCTGAATTCCGGTCTCCC
DNA 2: TGGTGGCTACGACGGGATT
B31: CGGGCCU (DNA:RNA)
RNA: B9 RNA with A25C, C26G, U28G, U29C, G30C, G31U
DNA 1: CAATCTGAATTCCGGTCTCCC
DNA 2: TGGTGGCTACGACGGGATT

Each binder was assayed against T1, RBFOX1 RRM RbFoxmut (Fox-RRM*) (assay: EMSA; HiTS-Eq, 1 nM pool, 10 min; buffer printed only for the single-RNA assays: 10 mM Tris pH 7.5, 150 mM NaCl, 3.4 mM EDTA, 0.001% NP-40, 30 C). Conditions: tags: His6 N-terminal (pET28a); label: 5' 32P.
Procedure, shortened: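 Relative association constants, normalised to the cognate motif, were derived by comparing read counts of each RNA species with those of the control reaction. The RNA sequenced was the free fraction, separated by 8% native PAGE after a 10 min equilibration in 50 µL of 1 nM 5′-radiolabelled RNA (7 randomized nucleotides) with increasing concentrations of purified wild-type or mutant RbFox RRM.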
For B1, the binding signal was 0.0545 KA relative to UGCAUGU.
B2 was tested, and the binding signal was 0.114 KA relative to UGCAUGU.
With B3 the binding signal was 0.108 KA relative to UGCAUGU.
In the case of B4, the binding signal is reported as 0.0916 KA relative to UGCAUGU.
For B5, the binding signal was 0.097 KA relative to UGCAUGU.
In the case of B6, the binding signal is reported as 0.0879 KA relative to UGCAUGU.
With B7 the binding signal was 0.0849 KA relative to UGCAUGU.
In the case of B8, the binding signal is reported as 0.101 KA relative to UGCAUGU.
With B9 the binding signal was 0.124 KA relative to UGCAUGU.
In the case of B10, the binding signal is reported as 0.104 KA relative to UGCAUGU.
For B11, the binding signal was 0.0736 KA relative to UGCAUGU.
In the case of B12, the binding signal is reported as 0.0425 KA relative to UGCAUGU.
With B13 the binding signal was 0.0793 KA relative to UGCAUGU.
In the case of B14, the binding signal is reported as 0.118 KA relative to UGCAUGU.
In the case of B15, the binding signal is reported as 0.0968 KA relative to UGCAUGU.
With B16 the binding signal was 0.173 KA relative to UGCAUGU.
For B17, the binding signal was 0.143 KA relative to UGCAUGU.
For B18, the binding signal was 0.139 KA relative to UGCAUGU.
B19 was tested, and the binding signal was 0.124 KA relative to UGCAUGU.
For B20, the binding signal was 0.129 KA relative to UGCAUGU.
For B21, the binding signal was 0.118 KA relative to UGCAUGU.
B22 was tested, and the binding signal was 0.0929 KA relative to UGCAUGU.
In the case of B23, the binding signal is reported as 0.0769 KA relative to UGCAUGU.
With B24 the binding signal was 0.0836 KA relative to UGCAUGU.
With B25 the binding signal was 0.132 KA relative to UGCAUGU.
B26 was tested, and the binding signal was 0.18 KA relative to UGCAUGU.
In the case of B27, the binding signal is reported as 0.0856 KA relative to UGCAUGU.
With B28 the binding signal was 0.205 KA relative to UGCAUGU.
B29 was tested, and the binding signal was 0.0858 KA relative to UGCAUGU.
B30 was tested, and the binding signal was 0.0819 KA relative to UGCAUGU.
For B31, the binding signal was 0.0905 KA relative to UGCAUGU.
